These results are taken from the supplement of paper PMC3334620.

Over roughly 33,000 sequences, “E-score (-0.5 to 0.5)” has its median near -0.017; the highest 2% begin near 0.3. Some of the results follow.

For the assay, the target named is T1, Sut1 (UniProt P53032).
T1 sequence: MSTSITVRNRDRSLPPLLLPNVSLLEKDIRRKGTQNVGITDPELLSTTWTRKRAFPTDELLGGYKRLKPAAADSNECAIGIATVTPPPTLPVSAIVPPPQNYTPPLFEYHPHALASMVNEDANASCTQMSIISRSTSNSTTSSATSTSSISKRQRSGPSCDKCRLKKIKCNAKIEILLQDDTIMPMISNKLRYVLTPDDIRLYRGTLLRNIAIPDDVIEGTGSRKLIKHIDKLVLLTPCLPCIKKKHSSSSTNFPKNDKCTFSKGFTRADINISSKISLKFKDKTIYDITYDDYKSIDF
Description: PBM E-score (8-mer binding enrichment) (E-score (-0.5 to 0.5)); higher = stronger / more preferred TF binding; most listed sequences are background and not binding sites. Conditions: protein concentration: 200 nM; construct: GST-full length. Summed up: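 Using PURExpress in vitro transcription/translation, GST-tagged yeast transcription factors were made in full-length or DNA-binding-domain form. These were applied at about 100-200 nM to double-stranded universal all-10-mer Agilent arrays, and bound protein was detected with fluorescent anti-GST. Scans were normalised with masliner before the Universal PBM Analysis Suite assigned E-scores to ungapped eight-base words pooled with their reverse complements.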
With AGTTCCTA, the “PBM E-score” value was 0.0198.

Turning to CCGCCGGC, the “PBM E-score” value is 0.158.

Consider CCGTCAGA, for which the “PBM E-score” value was -0.282.

Regarding ACACAAAA, the “PBM E-score” value was determined as 0.164.

Consider ACTGAAAC, for which the “PBM E-score” value was 0.218.

On to CTTTCCCC, for which the “PBM E-score” value was 0.0436.

AGCTGCTG: the “PBM E-score” value is -0.0338.

ATGTTGTA: the “PBM E-score” value stood at 0.132.

On to ACTGTGTG, for which the “PBM E-score” value is -0.0933.

ATTTTTAC: the “PBM E-score” value turned out to be 0.123.

As for AACCTAGT, the “PBM E-score” value stood at 0.163.

Turning to ACAGTAGT, the “PBM E-score” value was -0.142.

On to CGTCTATA, for which the “PBM E-score” value worked out at 0.108.

With CACGACCC, the “PBM E-score” value was -0.329.

Consider GCGTAGAA, for which the “PBM E-score” value amounted to 0.0238.

Regarding GACCTAAC, the “PBM E-score” value was found to be 0.104.

In the case of AAGTGTGT, the “PBM E-score” value was -0.136.

Turning to GGAAAGGA, the “PBM E-score” value turned out to be 0.0579.

On to AACGCCGG, for which the “PBM E-score” value came to 0.0841.

For the sequence CTAAACGA, the “PBM E-score” value is -0.0248.

For the sequence CTTCTCGA, the “PBM E-score” value was -0.0646.

ATCTGGTG: the “PBM E-score” value is -0.015.

Turning to CATATAGA, the “PBM E-score” value turned out to be 0.253.

Take ACGCGATC: the “PBM E-score” value was -0.0951.

Consider ATGCCCAA, for which the “PBM E-score” value is -0.0774.

Consider GGCTTCAC, for which the “PBM E-score” value was 0.0508.

Take GCCGATGA: the “PBM E-score” value is -0.0462.

For the sequence GAGACACC, the “PBM E-score” value was -0.122.

In the case of CGAGGACA, the “PBM E-score” value was -0.18.

Regarding AGTCTGAT, the “PBM E-score” value was -0.00908.

In the case of TAATCACA, the “PBM E-score” value turned out to be 0.0361.

Turning to ATGAACCG, the “PBM E-score” value was determined as 0.0188.

Consider ACGAAAGC, for which the “PBM E-score” value is -0.0813.

Turning to AATCGTCG, the “PBM E-score” value was 0.0792.

Regarding ACCTTAAG, the “PBM E-score” value was -0.024.

For CCCCGAAA, the “PBM E-score” value is 0.301.

With GAGGTCAC, the “PBM E-score” value was -0.174.

As to CGACCCCC, the “PBM E-score” value was -0.353.

For the sequence ACCGGTGG, the “PBM E-score” value was -0.137.

Take GGACTCAC: the “PBM E-score” value was -0.0577.

For CCACAGAC, the “PBM E-score” value was -0.251.

Take AATGACCG: the “PBM E-score” value is 0.0862.

In the case of CCGTCGAC, the “PBM E-score” value is -0.164.

Turning to CCCCAGGA, the “PBM E-score” value is -0.281.

Regarding GCTGATAC, the “PBM E-score” value is -0.114.

On to AGAAGCTA, for which the “PBM E-score” value was -0.0145.

As to CAAGGCGG, the “PBM E-score” value is -0.108.

On to ACGTTGAC, for which the “PBM E-score” value is -0.0954.

For the sequence GCAGGTAA, the “PBM E-score” value worked out at 0.183.

Regarding GTCCCCAA, the “PBM E-score” value is -0.0154.

With AATGGCAC, the “PBM E-score” value is -0.185.

For ATACCCAA, the “PBM E-score” value turned out to be 0.128.

In the case of ATCTGCTA, the “PBM E-score” value is 0.0381.

Regarding ACACGCCT, the “PBM E-score” value was -0.166.

For CTCGCGCA, the “PBM E-score” value is -0.187.

For GTGGTAGA, the “PBM E-score” value was -0.153.

As to AATGCGCG, the “PBM E-score” value is 0.0915.

In the case of GTTCTAAA, the “PBM E-score” value was determined as 0.134.

Regarding AACACTTG, the “PBM E-score” value is -0.0195.

GCCTACAA: the “PBM E-score” value was determined as 0.114.

As to CCCCGAGA, the “PBM E-score” value amounted to 0.168.

As to TCGAGGAA, the “PBM E-score” value is -0.0876.

GATGATTA: the “PBM E-score” value turned out to be 0.0123.

For the sequence CGTCCGCA, the “PBM E-score” value was -0.177.

For the sequence ACGTTTCC, the “PBM E-score” value is -0.00725.

Take CGCTCCAA: the “PBM E-score” value is -0.179.

In the case of CGCTCGTC, the “PBM E-score” value was -0.196.

As to ACTGCACG, the “PBM E-score” value is -0.178.

Consider AACCGATG, for which the “PBM E-score” value was determined as 0.00872.

Turning to ACGATGAC, the “PBM E-score” value was -0.0249.

As to CGCGTCCG, the “PBM E-score” value was -0.0607.

GCCCGACA: the “PBM E-score” value is -0.106.

Consider AATGAGCC, for which the “PBM E-score” value is -0.184.

For AAATGTCT, the “PBM E-score” value turned out to be 0.103.

As to GTCAATCA, the “PBM E-score” value is -0.0403.

As to CCAAGATC, the “PBM E-score” value is -0.0417.

ATCTTCCC: the “PBM E-score” value was 0.0466.

For the sequence AAAGCTGC, the “PBM E-score” value is -0.222.

Regarding ATGCCTCG, the “PBM E-score” value was -0.0517.

As for ACCGGGCA, the “PBM E-score” value is -0.0525.

With AACGGTGG, the “PBM E-score” value was -0.0614.

Regarding CATAAGAG, the “PBM E-score” value stood at 0.0118.

For the sequence AGAAGCTC, the “PBM E-score” value was determined as 0.0829.

Regarding GGAGTGCC, the “PBM E-score” value was 0.269.

As for CATGCAGC, the “PBM E-score” value is -0.151.

Consider AGAGAGGG, for which the “PBM E-score” value was -0.248.
